{"source": "PubChem BioAssay AID1745845", "about": "(National Center for Advancing Translational Sciences (NCATS), 2022)", "note": "Among all 360,000 compounds or so, about 2,600 (0.72%) were called active. The shares of active, inactive and inconclusive entries below differ from those in the screen. Calls come from the whole dose curve; as a rule, active = well fitted inhibition curve with a large enough effect; inconclusive = small, poorly fitted or top-dose-only effect; inactive = no such curve, though single readings can be large or run the other way. A potency beside an inconclusive call is a rough fit, not a confirmed value. Potency is the fitted concentration of half-maximal effect; tags give direction and shape of the fitted curve."}
{"assay": "Primary qHTS for Inhibitors of ATXN expression; note: nearly all actives have a fitted effect of over 55% in size", "settings": "HEK-293 ATXN2-luciferase reporter, luminescence, 24 h; series mostly up to 57 µM", "how_it_was_run": "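ATXN2-luciferase reporter cells (luciferase flanked by upstream and downstream ATXN2 gene portions) were treated 24 h at 37 °C with compounds at up to 57 uM. SteadyGlo luminescence gave expression; GF-AFC fluorescence gave viability.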"}
{"smiles": "CCn1c(=O)c2cc(C(=O)NC3CCCCCC3)sc2c2ccccc21", "Potency": "inconclusive: 35.5 µM [inhibitor, single point]"}
{"smiles": "O=C(NNc1ccc([N+](=O)[O-])cc1[N+](=O)[O-])c1ccco1", "Potency": "inconclusive: 31.6 µM [inhibitor, partial curve, poor fit]"}
{"smiles": "N#Cc1c(F)cccc1NCCCn1ccnc1", "Potency": "inactive"}
{"smiles": "O=C(O)c1ccccc1/C=N/NC(=O)c1cc(-c2ccco2)nc2ccccc12", "Potency": "inconclusive: 5.01 µM [inhibitor, partial curve, poor fit]"}
{"smiles": "CN1CC(=O)N(CC(=O)N2N=C(c3ccc(Cl)cc3)CC2c2ccco2)C1=O", "note": "(stereo not drawn)", "Potency": "inactive"}
{"smiles": "N#C/C(=C\\Nc1ccc2cn[nH]c2c1)c1nc(-c2ccc(Cl)cc2)cs1", "Potency": "inconclusive: 26.7 µM [inhibitor, single point]"}
{"smiles": "CCOc1ccccc1NC(=O)CCCc1nc2ccccc2c(=O)[nH]1", "Potency": "active: 20 µM"}
{"smiles": "COc1ccc(C2NC(=O)NC(c3ccccc3)=C2c2nc3ccccc3s2)cc1", "note": "(stereo not drawn)", "Potency": "inactive"}
{"smiles": "O=[N+]([O-])c1cc([N+](=O)[O-])c(Oc2cncc(Cl)c2)cc1NC1CCCCCCC1", "Potency": "inactive"}
{"smiles": "CCc1c(N)nc(N)nc1Nc1ccc(C)c(C)c1", "Potency": "inactive"}
{"smiles": "O=C(N/N=C/c1ccccc1O)C1SCCCS1", "Potency": "inconclusive: 26.7 µM [inhibitor, single point]"}
{"smiles": "COC(=O)c1ccc(Cn2cc(/C=C\\[N+](=O)[O-])c3ccccc32)o1", "Potency": "inconclusive: 35.5 µM [inhibitor, single point]"}
{"smiles": "CCCC[C@@H]1CNC(=S)N1CC1CCCCC1", "Potency": "inconclusive: 39.8 µM [inhibitor, partial curve, poor fit]"}
{"smiles": "COc1ccc(-c2[nH]c3ccccc3c2SCCNC(=O)c2ccccc2)cc1", "Potency": "inconclusive: 37.7 µM [inhibitor, single point]"}
{"smiles": "O=C1NC(=O)C(c2cnc3ccccn23)=C1c1cn2c3c(cccc13)CN(C(=O)N1CCOCC1)CC2", "Potency": "inconclusive: 27.3 µM [inhibitor, partial curve]"}
{"smiles": "O=C(NC(c1ccc(Cl)cc1)c1cnccn1)C1CCN(Cc2ccc(Oc3ccccc3)cc2)CC1", "note": "(stereo not drawn)", "Potency": "inconclusive: 39.8 µM [inhibitor, single point]"}
{"smiles": "COc1ccc(C2CC(c3cccs3)=NN2C(=O)c2ccccc2)cc1OC", "note": "(stereo not drawn)", "Potency": "inactive"}
{"smiles": "COc1ccccc1NC(=O)NCCCN1CCN(c2cccc(Cl)c2)CC1", "Potency": "inactive"}
{"smiles": "CN(c1ccccc1)S(=O)(=O)c1cccc(NC(=O)CCNC(=O)c2ccccc2)c1", "Potency": "inconclusive: 11.9 µM [inhibitor, partial curve, poor fit]"}
{"smiles": "CC1CC1C(=O)Nc1nc(-c2ccccc2)cs1", "note": "(stereo not drawn)", "Potency": "inactive"}
{"smiles": "O=C(COc1ccc(/C=N/NC(=O)c2cc3ccccc3o2)cc1Br)Nc1ccccc1", "Potency": "inconclusive: 20 µM [inhibitor, partial curve, poor fit]"}
{"smiles": "NS(=O)(=O)c1ccc(N2N=C(c3ccccc3)CC2c2cccc(Br)c2)cc1", "note": "(stereo not drawn)", "Potency": "inconclusive: 31.6 µM [inhibitor, single point]"}
{"smiles": "CC[C@]12c3[nH]c4cc(CCC(=O)N(C)C)ccc4c3CCN1C(=O)[C@@H](CC(=O)NCCCn1ccnc1)C[C@@H]2C(=O)N1CCN(C(=O)c2ccco2)CC1", "Potency": "inactive"}
{"smiles": "Oc1c(CN2CCCCC2)ccc2cccnc12", "Potency": "inconclusive: 10 µM [inhibitor, partial curve, poor fit]"}
{"smiles": "COc1ccc(-c2nn(-c3ccccc3)cc2/C=N/N=C(N)N)cc1OC", "Potency": "inconclusive: 28.2 µM [inhibitor, single point]"}
{"smiles": "CC(NC(=O)C1CCN(CCOc2ccc(Cl)cc2)CC1)c1cccc2ccccc12", "note": "(stereo not drawn)", "Potency": "inconclusive: 35.5 µM [inhibitor, single point]"}
{"smiles": "CCOC(=O)c1c(CN(C)C)n(C)c2c(O)c(N=NC(N)=O)c3ccc(Br)cc3c12", "Potency": "inconclusive: 12.6 µM [inhibitor, single point]"}
{"smiles": "CC(=O)NC(c1ccc2ccccc2c1)c1ccc2cccnc2c1O", "note": "(stereo not drawn)", "Potency": "active: 2.82 µM"}
{"smiles": "OC(c1cc(F)cc(Cl)c1)c1ncc(-c2ccc3ccccc3c2)[nH]1", "note": "(stereo not drawn)", "Potency": "inactive"}
{"smiles": "O=C(COC(=O)/C=C/C(=O)OCC(=O)NC12CC3CC(CC(C3)C1)C2)NC12CC3CC(CC(C3)C1)C2", "Potency": "inconclusive: 39.8 µM [inhibitor, single point]"}
{"smiles": "Oc1ccc2sc(-c3ccccc3O)c(-c3ccc(OCCN4CCCCC4)cc3)c2c1", "Potency": "inconclusive: 39.8 µM [inhibitor, partial curve, poor fit]"}
{"smiles": "CCOc1ccccc1C(=O)N/N=C/c1coc2ccc(Cl)cc2c1=O", "Potency": "inactive"}
{"smiles": "O=C(NCCn1cc(SCc2ccc(Br)cc2)c2ccccc21)c1cccs1", "Potency": "inconclusive: 25.1 µM [inhibitor, single point]"}
{"smiles": "NC(=O)C1=C(c2ccccc2)c2ccccc2C1=O", "Potency": "inconclusive: 35.5 µM [inhibitor, single point]"}
{"smiles": "Oc1ccc(NC(=S)N=Nc2c(O)[nH]c3ccc(Br)cc23)cc1", "Potency": "inconclusive: 31.6 µM [inhibitor, single point]"}
{"smiles": "CCc1ccccc1Oc1ccc(S(=O)(=O)N2CCN(C)CC2)cn1", "Potency": "inactive"}
{"smiles": "Cn1c(=O)c2c(-c3ccc(Br)cc3)n(Cc3ccc(F)cc3)cc2n(C)c1=O", "Potency": "inconclusive: 35.5 µM [inhibitor, single point]"}
{"smiles": "Cn1c(SC2=CS(=O)(=O)c3ccccc32)nc2ccccc21", "Potency": "inconclusive: 20 µM [inhibitor, partial curve, poor fit]"}
{"smiles": "CNC(=O)[C@H](Cc1ccccc1)NC(=O)[C@H](CC(C)C)[C@H](CSc1cccs1)C(=O)NO", "Potency": "inconclusive: 1.22 µM [inhibitor, full curve]"}
{"smiles": "CCCC(=O)NC(=S)Nc1cccc(Cl)c1N1CCCCC1", "Potency": "inconclusive: 35.5 µM [inhibitor, single point]"}
{"smiles": "COCCNc1nc(NCc2ccc(C)cc2C)c2sccc2n1", "Potency": "inconclusive: 17.8 µM [inhibitor, partial curve, poor fit]"}
{"smiles": "COc1ccc(C)cc1-n1cnc2cc(C(=O)NC3CCCCCC3)ccc21", "Potency": "inconclusive: 39.8 µM [inhibitor, single point]"}
{"smiles": "Cc1nn(CCC(N)=S)c2nc(-c3cccs3)cc(C(F)(F)F)c12", "Potency": "inactive"}
{"smiles": "Cc1ccc2onc(CNC(=O)NCc3ccc(Cl)cc3)c2c1", "Potency": "inactive"}
{"smiles": "CCN1CCN(Cc2ccc(NC(=O)c3cc(NC(=O)c4ccno4)cc(OC)c3)cc2C(F)(F)F)CC1", "Potency": "inconclusive: 31.6 µM [inhibitor, single point]"}
{"smiles": "O=C(O)c1ccccc1C(=O)N1CCN(c2ncccn2)CC1", "Potency": "inactive"}
{"smiles": "O=C(NCC1(c2ccccc2)CCCC1)C(=O)NCC1(c2ccccc2)CCCC1", "Potency": "inactive"}
{"smiles": "O=C1c2ccccc2C(c2nnnn2-c2ccc3c(c2)OCCO3)N1CCOc1ccccc1", "note": "(stereo not drawn)", "Potency": "inactive"}
{"smiles": "O=S(=O)(NCC(Nc1ccc(Cl)cc1)c1ccccc1)c1ccc(Cl)cc1", "note": "(stereo not drawn)", "Potency": "inconclusive: 28.2 µM [inhibitor, single point]"}
{"smiles": "O=C(C[C@@H]1C/C=C\\C[C@H](NC(=O)OCC2c3ccccc3-c3ccccc32)C(=O)OC[C@H]2CCCN2C1=O)N[C@@H](CO)Cc1ccccc1", "Potency": "inconclusive: 39.8 µM [inhibitor, partial curve, poor fit]"}
{"smiles": "Clc1cccc(Cc2c(C3CCCCC3)nc3ccc(Br)cn23)c1", "Potency": "inactive"}
{"smiles": "Cc1nc2ccc(CN(C)c3ccc(C(=O)N[C@@H](CCC(=O)O)C(=O)O)s3)cc2c(=O)[nH]1", "Potency": "active: 0.1 µM"}
{"smiles": "Cc1cccc(C(=O)N/N=C2\\CS(=O)(=O)N(C)c3ccsc32)c1", "Potency": "inconclusive: 35.5 µM [inhibitor, single point]"}
{"smiles": "c1ccc(-c2cc(N3CCCCC3)c3ccccc3n2)cc1", "Potency": "inconclusive: 37.7 µM [inhibitor, partial curve, poor fit]"}
{"smiles": "O=c1ccc2cc(S(=O)(=O)Nc3ccc(F)cc3)ccc2o1", "Potency": "inactive"}
{"smiles": "Cc1cc(NC(=O)CCc2nc3cccnc3n2Cc2cccs2)ccc1Br", "Potency": "inconclusive: 39.8 µM [inhibitor, single point]"}
{"smiles": "CN(C)c1cccc(C(=O)Nc2nc3ccc(S(=O)(=O)N4CCCC4)cc3s2)c1", "Potency": "inconclusive: 25.1 µM [inhibitor, partial curve]"}
{"smiles": "O=C1c2ccccc2C(=O)N1Cc1ccc2c(c1)OCO2", "Potency": "inactive"}
{"smiles": "COc1ccccc1-c1nnc(SCC(=O)NCc2c(C)c(Cl)cc(C(C)C)c2O)o1", "Potency": "inconclusive: 39.8 µM [inhibitor, single point]"}
{"smiles": "O=C(C(c1ccccc1)c1ccccc1)N1CCN(Cc2ccc(Br)cc2)CC1", "Potency": "inconclusive: 28.2 µM [inhibitor, partial curve, poor fit]"}
{"smiles": "Cc1nn(-c2ccccc2)c(Cl)c1CN(C(=O)CCl)c1cccc2ccccc12", "Potency": "inconclusive: 31.6 µM [inhibitor, single point]"}
{"smiles": "CN1CCCC1CCNc1ccc2sc3ccccc3c(=O)c2c1", "note": "(stereo not drawn)", "Potency": "inconclusive: 39.8 µM [inhibitor, single point]"}
{"smiles": "C=CC[C@@H](CC(=O)N(CCO)Cc1ccccc1)C(=O)NC[C@H](OC(=O)[C@@H](CC=C)CC(=O)OC(C)(C)C)c1ccccc1", "Potency": "inconclusive: 31.6 µM [inhibitor, single point]"}
{"smiles": "CC1CCN(S(=O)(=O)c2ccc3c(ccc(=O)n3CC(=O)NCc3ccccc3Cl)c2)CC1", "Potency": "inactive"}
{"smiles": "COc1ccc(S(=O)(=O)Nc2ccc(F)c(F)c2)cc1Cl", "Potency": "inactive"}
{"smiles": "CN(C)CCN1CCN(C(c2ccnc3ccccc23)c2nnnn2-c2ccc3c(c2)OCCO3)CC1", "note": "(stereo not drawn)", "Potency": "inactive"}
{"smiles": "COC(=O)c1sc2nc(-c3ccco3)ccc2c1N", "Potency": "inactive"}
{"smiles": "CCOc1ccc(NCc2cccn2-c2nnc(N3CCC(C(=O)NCCCN4C(C)CCCC4C)CC3)s2)cc1", "note": "(stereo not drawn)", "Potency": "inactive"}
